Screen size: about 310,000 compounds; about 14,000 (4.5%) showed an effect of 50% or more. Effects have a minus sign here. The list shows a part of the results.
These molecules were tested against human ether-à-go-go-related gene (hERG) potassium channel (human, UniProt Q12809) (assay: primary screen, population patch clamp on CHO cells stably expressing hERG).
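Further: peak tail current of the secondary pulse compared with the same well before compound.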

Sequence of human ether-à-go-go-related gene (hERG) potassium channel (Q12809 whole entry, looked up): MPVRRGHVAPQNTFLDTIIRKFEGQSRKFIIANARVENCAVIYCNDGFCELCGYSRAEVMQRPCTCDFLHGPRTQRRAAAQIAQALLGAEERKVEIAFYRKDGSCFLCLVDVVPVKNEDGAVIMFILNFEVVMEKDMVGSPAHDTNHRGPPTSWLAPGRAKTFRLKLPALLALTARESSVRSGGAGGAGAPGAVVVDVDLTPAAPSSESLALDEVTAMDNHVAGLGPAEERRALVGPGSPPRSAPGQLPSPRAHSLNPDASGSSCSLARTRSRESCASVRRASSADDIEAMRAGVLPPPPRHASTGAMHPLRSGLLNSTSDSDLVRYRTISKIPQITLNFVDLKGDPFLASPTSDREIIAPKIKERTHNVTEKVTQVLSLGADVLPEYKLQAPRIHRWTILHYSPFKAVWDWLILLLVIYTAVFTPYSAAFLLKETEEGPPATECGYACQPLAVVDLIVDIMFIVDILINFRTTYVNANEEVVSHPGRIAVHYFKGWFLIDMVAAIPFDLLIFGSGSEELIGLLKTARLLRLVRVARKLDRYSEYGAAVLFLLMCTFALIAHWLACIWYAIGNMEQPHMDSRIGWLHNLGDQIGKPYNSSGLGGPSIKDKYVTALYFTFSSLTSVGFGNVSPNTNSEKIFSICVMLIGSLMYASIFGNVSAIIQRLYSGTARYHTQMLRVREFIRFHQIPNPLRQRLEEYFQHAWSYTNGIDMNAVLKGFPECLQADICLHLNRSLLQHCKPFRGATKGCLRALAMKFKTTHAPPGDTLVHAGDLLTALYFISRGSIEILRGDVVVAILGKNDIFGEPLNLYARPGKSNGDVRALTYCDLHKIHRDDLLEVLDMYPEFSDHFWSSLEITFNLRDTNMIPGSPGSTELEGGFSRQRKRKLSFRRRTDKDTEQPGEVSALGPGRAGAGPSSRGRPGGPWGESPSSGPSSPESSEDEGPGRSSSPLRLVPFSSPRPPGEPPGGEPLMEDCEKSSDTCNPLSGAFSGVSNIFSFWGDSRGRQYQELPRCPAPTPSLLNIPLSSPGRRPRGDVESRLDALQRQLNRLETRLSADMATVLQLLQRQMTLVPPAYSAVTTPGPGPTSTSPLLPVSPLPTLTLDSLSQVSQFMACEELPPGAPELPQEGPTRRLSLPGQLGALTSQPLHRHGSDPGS

Point of comparison: `C/C(=N\n1cnnc1)c1ccccc1`, “hERG current change (%, negative = inhibition) at 10uM” value 12.1%. Against it:
- Cc1noc(C)c1COc1cccc(C(=O)Nc2ccc(C#N)cc2)c1 — lower, -42%
- Cc1ccc2[nH]c3c(=O)n(N)c(=O)[nH]c3c2c1 — lower, 2.89%
- N#Cc1c(-c2ccco2)cc(C2CC2)nc1N — lower, -9.35%
- O=C(CCC1CCCCC1)NCCN1CCOCC1 — lower, -16.5%
- CC(C)(O)C(O)COc1c2ccoc2cc2oc(=O)ccc12 (centres unmarked) — higher, 17%
- CC(C)OCCCNC(=O)CN1CCN(Cc2ccc(Cl)cc2)C1=O — lower, 11.6%
- O=C(NCc1cccs1)C1CCN(S(=O)(=O)c2cccc3nsnc23)CC1 — lower, -13.1%
- O=C(/C(=N\O)n1cncn1)c1ccc(Br)cc1Br — lower, -13.9%
- CCOC(=O)c1cn(Cc2ccc(Br)cc2)nn1 — lower, -0.536%
- CC(C)OC(=O)c1ccc(NC(=S)NC(=O)c2cncc(Br)c2)cc1 — higher, 16.1%
- CCOC(=O)C1=C(C)N(C)C(=O)NC1c1cc2c(cc1Br)OCO2 (centres unmarked) — lower, -9.08%
- O=S(=O)(c1cccc2cccnc12)N1CCOCC1 — lower, 5.96%
- Cc1onc(-c2c(F)cccc2Cl)c1C(=O)N(C)CC(=O)Nc1cccc(F)c1 — lower, -1.33%
- CN(CC(=O)Nc1ccccc1C(F)(F)F)C(=O)COc1ccccc1Cc1ccccc1 — lower, -9.34%
- Cc1ccc(C2c3[nH]c4ccccc4c3C[C@H]3C(=O)N(c4ccccc4C(=O)NCCN4CCOCC4)C(=O)N23)cc1 (some centres unmarked) — lower, -24.9%
- CCOc1ccc(N2C(=O)CN(C)C2=S)cc1 — higher, 13.4%
- COc1ccccc1/C=N\Nc1ccccc1[N+](=O)[O-] — higher, 21.7%
- CCCN(Cc1cc2cc(C)ccc2[nH]c1=O)S(C)(=O)=O — higher, 21.9%
- CCOC(=O)N1CCC(Nc2c(NCCN3CCN(c4ccccc4F)CC3)c(=O)c2=O)CC1 — lower, 3.81%
- CCCN(CCC)C(=O)CC(c1ccccc1)c1ccco1 (centres unmarked) — lower, -10.4%
- CC(C)CCc1noc(CN2CCC(CCN3CCCC3=O)CC2)n1 — lower, -3.97%
- O=C(CSc1ccc2nnc(CCNC(=O)c3ccccc3)n2n1)NCc1ccccc1 — lower, -8.24%
- CC(Oc1cccnc1[N+](=O)[O-])C(=O)Nc1ccc(F)cc1 (centres unmarked) — lower, -12.4%
- CCN(CC)CC#CC(OC)(c1ccccc1)c1ccccc1.Cl — lower, -49.2%
- Nc1nc(Nc2ccccc2)nc(NCCO)c1[N+](=O)[O-] — lower, 2.49%
- COc1ccc(-c2cc(C(=O)N3CCN(c4ncccn4)CC3)c3ccccc3n2)cc1OC — lower, -20.4%
- COC(=O)c1c(-c2ccccc2Cl)noc1/C=C/N(C)C — lower, 2.21%
- COc1ccc(C2Nc3ccc(Br)cc3C(c3ccccc3)N2CC(=O)O)cc1 (centres unmarked) — higher, 18.4%
- CCOC(=O)C1(CCOc2ccccc2)CCN(Cc2ccc(OC)c(COC)c2)CC1 — lower, -80.2%
- N#C/C(=C/c1ccc(F)cc1)c1nc(CCN2C(=O)c3ccccc3C2=O)cs1 — lower, -6.76%
- Cc1cc(C)c2c(n1)SCC(=O)N2CC(=O)Nc1c(C)cccc1C — lower, 7.05%
- Cc1ccccc1/C=N/NC(=O)CSc1nc2ccccc2o1 — lower, 5.01%
- O=C(NC(=S)N1CCN(Cc2ccc3c(c2)OCO3)CC1)c1ccc(Cl)cc1 — lower, -23.6%
- CCOC(=O)CSc1nc2ccccc2n1CC(=O)NC(C)(C)C — lower, -7.86%
- CCc1n[nH]c(=O)n1Cn1c(CC)n[nH]c1=O — lower, 8.6%
- O=C(Nc1cccc(C(=O)Nc2cccc(Br)c2)c1)c1ccccc1 — lower, -4.34%
- O=C(c1ccco1)N1CCN(S(=O)(=O)c2ccccc2)CC1 — lower, 9.44%
- CCn1c(SCC(=O)NC(C)(C)C)nc(O)cc1=O — lower, 5.5%
- O=C(COC(=O)CCSc1ccccc1)Nc1cc(F)ccc1F — higher, 19.7%
- Cc1nn(-c2ccc(N3CCCCC3)nn2)c(C)c1CCC(=O)Nc1cccc(F)c1 — lower, -19%
- O=C(NC1(C(F)(F)F)NC(=O)N(CCc2ccccc2)C1=O)C1CC1 (centres unmarked) — lower, 1.57%
- COC(=O)CN1C(=O)S/C(=C/c2ccc(N3CCCCC3)o2)C1=O — higher, 15.6%
- CCN(CC)c1ccc(N=Cc2c(O)n(Cc3ccccc3)c(=O)[nH]c2=O)cc1 [14729657] — lower, -0.768%
- O=[N+]([O-])c1cccc(/C=N/Nc2nc(NCc3ccccc3)nc(N3CCOCC3)n2)c1O — lower, 4.47%
- COc1ccc(Cc2nnc(N)s2)cc1 — higher, 15.3%
- CC(Oc1ccc(Cl)cc1Cl)C(=O)NCCC1=CCCCC1 (centres unmarked) — lower, 4.46%
- O=C(N1CCCC1)C12CC3CC(C1)CC(C(=O)N1CCCC1)(C3)C2 — lower, 9.48%
- O=C(NCCO)C1CCN(S(=O)(=O)c2ccc(F)cc2)CC1 — lower, 9.14%
- CC(C)(C)NS(=O)(=O)c1ccc2c(c1)oc(=O)c1cc(S(=O)(=O)NC(C)(C)C)ccc12 — lower, 6.26%
- CSCc1ccc(C(=O)Nc2cccc(C)c2C)cc1 — lower, 2.01%
- CC(C)C(=O)Nc1ccc(NC(=O)c2ccc3c(c2)OCO3)cc1 — lower, 10.2%
- Cc1cccc2sc(NC(=O)c3ccc(NS(=O)(=O)c4cccs4)cc3)nc12 — lower, -28.8%
- CCOCCCNC(=O)CCNC(=O)c1cc(OC)c(OC)c(OC)c1 — lower, -2.91%
- CCC(C)Sc1ccc(-c2nc3ccc(C)cn3c2NCc2ccccc2)cc1OC.O=C(O)C(F)(F)F (centres unmarked) — lower, 0.528%
- CCCc1cc(=O)c2ccc(OCC(C)=O)cc2o1 — lower, -21%
- COc1cccc(-c2cc(C(F)(F)F)nc(N3CCCCC3)n2)c1 — higher, 19.5%
- Cc1ccc(NC(=O)C2CC2c2ccccc2)c([N+](=O)[O-])c1 (centres unmarked) — lower, -3.54%
- CSC(=Nc1ccc(Cl)cc1)N[n+]1ccccc1.[I-] — lower, -58.8%
- O=C(Cn1cnc2scc(-c3cccc([N+](=O)[O-])c3)c2c1=O)NCc1ccco1 — lower, -54%
- O=C(C[n+]1ccc(C(=O)N/N=C/c2ccc(O)cc2)cc1)c1ccccc1.[Br-] — lower, -6.07%
- COC(=O)Cc1ccc(NC(=S)N2CCN(C)CC2)cc1 — lower, -0.432%
- COc1ccc(C(=O)N2CCN(c3ccc(N4CCOCC4)nn3)CC2)cc1OC — lower, 8.55%
- CC(=O)c1ccc(N2CCN(C(=O)CCCc3nc4ccccc4s3)CC2)cc1 — lower, -29.4%
- COc1ccc(NS(=O)(=O)c2ccc(NC(=O)C3CC3)cc2)cc1 — higher, 18.6%
- CSC1=NCCN1S(=O)(=O)c1ccc(NC(C)=O)cc1 — lower, -1.53%
- COc1ccc(C(CCNCc2ccc(F)cc2)c2ccc(F)cc2)cc1 (centres unmarked) — lower, -64.6%
- Cc1ccc(S(=O)(=O)CCC(=O)OCC(=O)NCc2ccc(Cl)cc2)cc1 — higher, 36.8%
- COC(=O)N/N=C/c1ccccc1OCCOc1ccc(OC)cc1 — higher, 16.4%
- O=C(NCC(c1ccco1)N1CCc2ccccc21)c1ccccc1F (centres unmarked) — lower, -19.8%
- COc1ccc(CNc2oc(C)nc2C#N)cc1 — lower, -1.09%
- CC(C)Oc1ccc(C(=O)Nc2ccc(N3CCCC3)cc2)cc1 — lower, 3.36%
- CCN1CNC(=S)N(c2cc(C)ccc2C)C1 — higher, 15.4%
- CCO/C=C1/C(=O)N(c2ccccc2OC)C(=O)c2ccccc21 — higher, 23.1%
- CCCn1c(SCC(=O)NC(C)C23CC4CC(CC(C4)C2)C3)n[nH]c1=O (centres unmarked) — lower, -19.6%
- COc1cccc(C2C3=C(N=c4s/c(=C\c5ccc(O)cc5)c(=O)n42)c2ccccc2CC3)c1OC (centres unmarked) — lower, 2.74%
- CC(N=c1ccccn1C(=O)Nc1ccc(Cl)cc1)c1ccco1 (centres unmarked) — lower, 5.75%
- CCCCC(=O)NC(Nc1nc(C2CC2)cs1)(C(=O)OCC)C(F)(F)F (centres unmarked) — lower, -14%
- Cc1ccc(S(=O)(=O)N2CCOCC2)cc1NC(=O)CSc1nnc(C2CC2)n1C1CC1 — lower, -7.36%
- CCOC(=O)Cc1csc(-n2sc3ccccc3c2=O)n1 — higher, 22.6%
- CC1CCN(CC(=O)n2c3c(c4ccccc42)CCCC3)CC1.Cl — lower, 0.546%
- COc1ccccc1N(CC(=O)N1CCCCC1)S(=O)(=O)c1ccccc1 — lower, 4.01%
- O=C(CSc1nc(-c2ccccc2)nc2ccccc12)Nc1nccs1 — lower, -3.64%
- CCC1CCCN1Cn1cnc2c([nH]c3ccccc32)c1=O (centres unmarked) — lower, -62.1%
- COc1ccc(CCNC(=O)c2cc3c(=O)n4cccc(C)c4nc3s2)cc1OC — higher, 21.3%
- Cc1cc(C)cc(N(C(=O)Cn2nnc(-c3ccccc3)n2)C(C(=O)NC2CCCCC2)c2ccccn2)c1 (centres unmarked) — lower, -5.43%
- O=C(Nc1ccc(Cc2ccncc2)cc1)C1CCC(N2C(=O)C3C4C=CC(C4)C3C2=O)CC1 (centres unmarked) — lower, 4.01%
- COc1cccc2c1cc1c(=O)n(CC(=O)N3CCC(C)CC3)nc(C)n12 — lower, 8.08%
- O=C(N/N=C/c1ccccc1[N+](=O)[O-])c1ccc(CN2CCOCC2)cc1 — lower, 0.305%

From publication PMC4336329 (PLoS ONE, 2015)
